# Laboratory results published in PubChem BioAssay AID1030 (National Center for Advancing Translational Sciences (NCATS), 2008).
# Screen size: about 220,000 compounds; about 16,000 (7.3%) were called active. The shares of active, inactive and inconclusive entries below differ from those in the screen. Calls follow the shape of the dose curve; as a rule, active = well fitted inhibition curve with a large enough effect (not every such curve was filed as active); inconclusive = small, poorly fitted or top-dose-only effect, or another doubt; inactive = no such curve, though single readings can be large or run the other way. Potencies of inconclusive entries are left out as doubtful fits.
# Target: Aldehyde dehydrogenase 1A1 (Homo sapiens) (UniProt P00352)
# Experiment: qHTS Assay for Inhibitors of Aldehyde Dehydrogenase 1 (ALDH1A1);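 as to activity, negative = inhibition: plate controls were no enzyme wells and a reference inhibitor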
# Settings: Purified ALDH1A1, NADH fluorescence, propionaldehyde substrate; series mostly up to 75.3 µM; activity, negative = inhibition: at the top concentration
# Potency is read from the fitted curve at half-maximal effect; tags tell the direction and shape of the fitted curve.
# Chain of UniProt P00352 (P00352 whole entry, looked up): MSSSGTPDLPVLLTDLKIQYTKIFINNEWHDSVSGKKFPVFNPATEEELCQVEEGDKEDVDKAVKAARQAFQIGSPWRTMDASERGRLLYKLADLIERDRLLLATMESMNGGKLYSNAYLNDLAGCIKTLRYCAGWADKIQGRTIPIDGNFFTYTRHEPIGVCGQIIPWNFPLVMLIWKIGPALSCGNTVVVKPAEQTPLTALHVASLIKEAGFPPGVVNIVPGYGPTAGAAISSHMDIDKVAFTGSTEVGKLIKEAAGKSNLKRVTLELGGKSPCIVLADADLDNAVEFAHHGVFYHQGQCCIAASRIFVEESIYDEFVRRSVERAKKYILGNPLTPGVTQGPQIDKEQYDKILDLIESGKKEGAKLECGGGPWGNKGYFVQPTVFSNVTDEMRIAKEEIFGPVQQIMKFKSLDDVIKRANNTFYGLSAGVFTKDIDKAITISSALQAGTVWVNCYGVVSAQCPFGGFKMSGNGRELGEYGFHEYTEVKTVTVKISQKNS
SMILES,"activity, negative = inhibition",Potency
Cc1cccc(NC(=O)c2ccc(COc3ccc4ccccc4c3)o2)n1,inactive: -8.25%,–
CC(C)COC(=O)c1cc(-c2ccc(/C=N/n3cnnc3)o2)ccc1Cl,–,"inconclusive [inhibitor, partial curve]"
CCOCCCNC(=O)c1cn(CC(C)C)c(=O)c2cc(OC)c(OC)cc12,–,active: 20 µM
Cc1cc(NC(=NC2CC2)c2ccccc2F)n(-c2ccccc2)n1,inactive: 12.8%,–
Cc1ccccc1-n1c(SC2CCOC2=O)nnc1-c1ccncc1 (configuration not stated),inactive: -3.2%,–
CC(C)COC(=S)Nc1ccccc1,–,active: 25.1 µM
COc1ccc(OC)c(/C=N/NC(=O)CCc2n[nH]c(=O)[nH]c2=O)c1,–,"inconclusive [inhibitor, partial curve]"
CCc1nc(N2CCC3(CC2)OCCO3)c2nnn(Cc3ccccc3Cl)c2n1,–,"inconclusive [inhibitor, single point]"
N#CC1=C2SCN(c3ccccc3)CN2C(=O)CC1c1ccccc1Cl (configuration not stated),–,active: 3.16 µM
C=C(C)C(O)/C=C/CCCCCCC (configuration not stated),inactive: 12% [at 13.5 µM],–
COc1ccc([C@@H]2C(C#N)=C(N)S[C@@H](c3ccccc3)[C@@H]2[N+](=O)[O-])cc1,–,"inconclusive [inhibitor, single point]"
CCN(C(=O)Cn1c(=O)n(Cc2ccccc2)c(=O)c2ccccc21)c1cccc(C)c1,–,"inconclusive [inhibitor, single point]"
CC(=O)NC1C(=O)N=C(SCC(=O)NCc2ccccc2)NC1=O (configuration not stated),–,"inconclusive [inhibitor, single point]"
CCNC(=S)NCC,–,"inconclusive [inhibitor, single point]"
COc1ccc(-n2cc(CNCc3cccnc3)c(-c3cccc(F)c3)n2)cc1,–,"inconclusive [inhibitor, partial curve]"
CC1(CCc2ccccc2)NC(=O)N(CC(=O)N2CC(=O)Nc3ccccc32)C1=O (configuration not stated),–,"inconclusive [inhibitor, single point]"
O=[N+]([O-])c1cc(Br)cc(/C=N/n2cnnc2)c1O,–,"inconclusive [inhibitor, partial curve]"
C/C(=C\c1ccccc1)C(=O)N1CCN(c2cccc(C(F)(F)F)c2)CC1,inactive: 5.29%,–
O=[N+]([O-])c1cccc(-c2nc(NCc3ccccc3)c3ccccc3n2)c1,–,"inconclusive [inhibitor, single point]"
CC1=C(C(=O)Nc2ccccc2F)C(c2ccsc2)C2=C(CC(c3ccccc3)CC2=O)N1 (configuration not stated),–,"inconclusive [inhibitor, single point]"
c1csc(CNc2ncnc3ccc(-c4ccoc4)cc23)c1,–,"inconclusive [inhibitor, partial curve]"
Oc1ccc(/C=N/Nc2cccc3cccnc23)c(O)c1,–,"inconclusive [inhibitor, partial curve]"
CCCN1C(=O)SC(CC(=O)Nc2ccc(C)cc2)C1=O (configuration not stated),–,active: 22.4 µM
CC(C)C(c1nnnn1C1CCCC1)N1CCc2ccccc21 (configuration not stated),–,"inconclusive [inhibitor, single point]"

SMILES,"activity, negative = inhibition",Potency
COC(=O)C/C=C\[C@@H](C)[C@@H](/C=N\O[C@@H](C)CN1CCCc2nc(C)c(C)cc21)NS(=O)(=O)c1ccc(C)cc1,–,"inconclusive [inhibitor, single point]"
CCCn1c(SCC(=O)Nc2nonc2C)nnc1-c1ccoc1C,inactive: -0.291%,–
COc1ccc(C(c2nnnn2Cc2cccs2)N2CCN(c3ccccc3F)CC2)cc1OC (configuration not stated),–,"inconclusive [inhibitor, single point]"
N#CCSc1nn(-c2ccc(F)cc2)c(=S)s1,–,"inconclusive [inhibitor, single point]"
CCOC(=O)COc1ccccc1/C=C\[N+](=O)[O-],–,active: 4.47 µM
O=C(CN1CCOCCOCCN(CC(=O)Nc2ccccc2)CCOCC1)Nc1ccccc1,–,active: 22.4 µM
O=C(c1ccccc1F)N1CCN=C1SCc1cccnc1,–,"inconclusive [inhibitor, partial curve]"
CCOC(=O)Nc1nc(-c2ccccc2)c(C)s1,–,"inconclusive [inhibitor, single point]"
COc1ccc(N(CC(=O)Nc2ccccc2C(N)=O)S(=O)(=O)c2ccc(C)c([N+](=O)[O-])c2)cc1,–,"inconclusive [inhibitor, single point]"
CCc1c(C)n2nc(C)cc2[nH]c1=O,–,"inconclusive [inhibitor, partial curve]"
O=[N+]([O-])c1cccc(Cl)c1,–,active: 25.1 µM
CCOc1ccc(C2N(c3ccc(Cl)cc3)C(=O)C3CCCN32)cc1OC (configuration not stated),–,"inconclusive [inhibitor, single point]"
O=c1c(-c2ccccc2)nc2cnc(Oc3ccccc3)nc2n1Cc1cccs1,–,"inconclusive [inhibitor, partial curve]"
O=C(COC(=O)c1ccccc1)Nc1ccccc1N1CCOCC1,–,"inconclusive [inhibitor, single point]"
COc1ccc(S(=O)(=O)N(CC(=O)N2CCOCC2)Cc2ccccc2)cc1C,–,"inconclusive [inhibitor, partial curve, poor fit]"
Cc1cccc(C(=O)NCCc2csc(C)n2)c1,inactive: -3.25%,–
COc1ccc(OC)c(/C=C(\NC(=O)c2ccccc2)C(=O)N/N=C/c2ccc(C)s2)c1,–,"inconclusive [inhibitor, partial curve]"
CC(C)N1C(=O)CC(Nc2ccc(N3CCOCC3)cc2)C1=O (configuration not stated),–,"inconclusive [inhibitor, single point]"
COc1ccc(C2C(C(=O)Nc3ccc(OC)c(OC)c3)c3ccccc3C(=O)N2C)cc1 (configuration not stated),inactive: 1.91%,–
Cc1cccc(Cc2nnc(CCC(=O)NCc3cnc4ccccn34)o2)c1,–,"inconclusive [inhibitor, partial curve]"
COCCOC(=O)c1[nH]c2c(c1C)C(=O)CC(c1ccc(N(C)C)cc1)C2 (configuration not stated),–,active: 14.1 µM
COc1ccc(N2C(=O)CCC(C(=O)N3CCCCCC3)C2c2ccc(OC)c(OC)c2)cc1 (configuration not stated),inactive: 11.4%,–
CN(C(=O)COc1ccccc1)c1nnc(C23CC4CC(CC(C4)C2)C3)s1,inactive: 2.4%,–
CC1(C)CC(=O)c2cnc(NCC3CCCO3)nc2C1 (configuration not stated),–,"inconclusive [inhibitor, partial curve]"

SMILES,"activity, negative = inhibition",Potency
Cc1ccc(C)c(NS(=O)(=O)c2cc(C(=O)O)ccc2Cl)c1,inactive: -3.7%,–
CCNC(=O)NCc1c(C)c(C)n(Cc2ccccc2)c1-n1cccc1,–,"inconclusive [inhibitor, single point]"
CCOP(=O)(c1ccc(N(C)C)cc1)C(O)c1ccccc1 (configuration not stated),inactive: 0.211%,–
CCOC(=O)C1=C(C)N=C2c3ccccc3C(=O)C2C1c1ccc(C)cc1 (configuration not stated),–,"inconclusive [inhibitor, single point]"
C(=N\N(Cc1ccccc1)c1ccccc1)/c1ccco1,–,active: 14.1 µM
O=[N+]([O-])c1ccccc1-c1nc(-c2ccc(Br)o2)no1,–,"inconclusive [inhibitor, single point]"
Cc1cc(C)c2cc(CN(CCO)C(c3nnnn3Cc3ccc(F)cc3)C(C)C)c(=O)[nH]c2c1 (configuration not stated),–,active: 12.6 µM
CCOC(=O)/C(C#N)=C\C1=C(N2CCOCC2)CC(C)(C)OC1,–,"inconclusive [inhibitor, single point]"
CCCCNC(=S)Nc1ccc([N+](=O)[O-])cc1,–,"inconclusive [inhibitor, single point]"
O=C(Nc1nc2cc3c(cc2s1)OCCO3)c1cccc(S(=O)(=O)N2CCOCC2)c1,–,"inconclusive [inhibitor, single point]"
CCn1c2ccccc2c2cc(NC(=O)COC(=O)c3cc(S(N)(=O)=O)c(Cl)cc3Cl)ccc21,–,"inconclusive [inhibitor, single point]"
NC(=O)CSC1=Nc2ccccc2C2=NC(CCC(=O)NCc3ccc(F)cc3)C(=O)N12 (configuration not stated),–,"inconclusive [inhibitor, partial curve]"
O=C(CC(c1ccccc1)c1cc(Br)ccc1O)NCCN1CCOCC1 (configuration not stated),inactive: -64%,–
O=C(NC1CCN(C(=O)C2CCCCC2)CC1)c1ccccc1,inactive: -10.5%,–
O=C(NC(=S)Nc1ccccc1N1CCCCC1)c1ccco1,–,"inconclusive [inhibitor, single point]"
COc1ccccc1-n1c(SCC(N)=O)nnc1-c1ccc(S(=O)(=O)N2CCCCC2)cc1,–,active: 4.47 µM
C=CCn1c(N)c(C(=O)NCC2CCCO2)c2nc3ccccc3nc21 (configuration not stated),inactive: 2.2%,–
Cc1cc(C(=O)COc2ccccc2C(N)=O)c(C)n1CC1CCCO1 (configuration not stated),–,"inconclusive [inhibitor, partial curve]"
CSc1ccccc1NC(=O)c1ccccc1,inactive: -4.33%,–
CCc1cccc(OCCCCNCCCOC)c1,–,"inconclusive [inhibitor, single point]"
COc1cc(C2=NOC(C(=O)NCc3ccco3)C2)cc(OC)c1OC (configuration not stated),inactive: 6.36%,–
C=CCN1C(=O)/C(=C2/Sc3ccccc3N2C)SC1=Nc1c(C)n[nH]c1C,–,"inconclusive [inhibitor, single point]"
CC(C)(C)C(=O)[C@@H]1[C@@H]2C(=O)N(Cc3ccccc3)C(=O)[C@@H]2[C@H]2c3ccccc3C=CN12,–,"inconclusive [inhibitor, single point]"
Cc1cc(C)cc(C(=O)NC2C(=O)N3C(C(=O)O)=C(CSc4nnc(C)s4)CSC23)c1 (configuration not stated),–,"inconclusive [inhibitor, single point]"
